The structures appear in SMILES notation.

Data on 19 compounds can be found in patent US9873709B2 (priority 2013, dated 2018).

This experiment deals with isolated recombinant JAK1 kinase domain (Homo sapiens (Human), UniProt P23458). As to conditions: read-out: JAK1 Ki; isolated recombinant JAK1 kinase domain, 25 μM ATP.
As usually defined, the Ki is the dissociation constant of the complex between target and ligand, obtained from inhibition or displacement. `CN(C)c1cc(CC2CCN(C(=O)c3ccc(Nc4nc5c(C6=CCN(C(=O)CCC(F)(F)F)CC6)cccn5n4)cc3)C2)ncn1` (stereo not shown) [Example 2-217, 1-[4-[2-[4-[3-[[6-(dimethylamino)pyrimidin-4-yl]methyl]pyrrolidine-1-carbonyl]anilino]-[1,2,4]triazolo[1,5-a]pyridin-8-yl]-3,6-dihydro-2H-pyridin-1-yl]-4,4,4-trifluoro-butan-1-one]: the Ki was 0.76 nM. Regarding `Cc1ccc(CC2CCN(C(=O)c3ccc(Nc4nc5c(C6=CCN(C(=O)CCC(F)(F)F)CC6)cccn5n4)cc3)C2)nc1` (stereo not shown) [Example 2-218, 4,4,4-trifluoro-1-[4-[2-[4-[3-[(5-methyl-2-pyridyl)methyl]pyrrolidine-1-carbonyl]anilino]-[1,2,4]triazolo[1,5-a]pyridin-8-yl]-3,6-dihydro-2H-pyridin-1-yl]butan-1-one], the Ki was found to be 0.99 nM.

For `CCN(Cc1ccncc1)C(=O)c1ccc(Nc2nc3c(C4=CCN(C(=O)CCC(F)(F)F)CC4)cccn3n2)cc1` [Example 2-219, N-ethyl-N-(4-pyridylmethyl)-4-[[8-[1-(4,4,4-trifluorobutanoyl)-3,6-dihydro-2H-pyridin-4-yl]-[1,2,4]triazolo[1,5-a]pyridin-2-yl]amino]benzamide], the Ki is 0.66 nM. Regarding `O=C(NCCc1cccnc1)c1ccc(Nc2nc3c(C4=CCN(C(=O)CCC(F)(F)F)CC4)cccn3n2)cc1` [Example 2-220, N-[2-(3-pyridyl)ethyl]-4-[[8-[1-(4,4,4-trifluorobutanoyl)-3,6-dihydro-2H-pyridin-4-yl]-[1,2,4]triazolo[1,5-a]pyridin-2-yl]amino]benzamide], the inhibition constant (Ki) was 0.57 nM.

For `CC1CC1C(=O)N1CC=C(c2cccn3nc(Nc4ccc(C(=O)N(C)C5CCN(C)CC5)cc4)nc23)CC1` (stereo not shown) [Example 2-223, N-methyl-4-[[8-[1-(2-methylcyclopropanecarbonyl)-3,6-dihydro-2H-pyridin-4-yl]-[1,2,4]triazolo[1,5-a]pyridin-2-yl]amino]-N-(1-methyl-4-piperidyl)benzamide], the inhibitory constant (Ki) was determined as 1.36 nM. Turning to `CN1CCC(N(C)C(=O)c2ccc(Nc3nc4c(C5=CCN(C(=O)OCC(F)F)CC5)cccn4n3)cc2)CC1` [Example 2-225, 2,2-difluoroethyl 4-[2-[4-[methyl-(1-methyl-4-piperidyl)carbamoyl]anilino]-[1,2,4]triazolo[1,5-a]pyridin-8-yl]-3,6-dihydro-2H-pyridine-1-carboxylate], the inhibitory constant (Ki) is 1.29 nM. In the case of `CCOC(=O)N1CC=C(c2cccn3nc(Nc4ccc(C(=O)NCCN5CCCC(C)C5)cc4)nc23)CC1` (stereo not shown) [Example 2-226, ethyl 4-[2-[4-[2-(3-methyl-1-piperidyl)ethylcarbamoyl]anilino]-[1,2,4]triazolo[1,5-a]pyridin-8-yl]-3,6-dihydro-2H-pyridine-1-carboxylate], the Ki came out at 3.37 nM. `CCOC(=O)N1CC=C(c2cccn3nc(Nc4ccc(C(=O)N5CCN(CCN(C)C)CC5)cc4)nc23)CC1` [Example 2-227, ethyl 4-[2-[4-[4-[2-(dimethylamino)ethyl]piperazine-1-carbonyl]anilino]-[1,2,4]triazolo[1,5-a]pyridin-8-yl]-3,6-dihydro-2H-pyridine-1-carboxylate]: the Ki came to 3.71 nM. Under `CCOC(=O)N1CC=C(c2cccn3nc(Nc4ccc(C(=O)N5CCOC(c6ccccn6)C5)cc4)nc23)CC1` (stereo not shown) [Example 2-228, ethyl 4-[2-[4-[2-(2-pyridyl)morpholine-4-carbonyl]anilino]-[1,2,4]triazolo[1,5-a]pyridin-8-yl]-3,6-dihydro-2H-pyridine-1-carboxylate] stands 3.2 nM; under `CCOC(=O)N1CC=C(c2cccn3nc(Nc4ccc(C(=O)NCCc5cccc(C)n5)cc4)nc23)CC1` [Example 2-229, ethyl 4-[2-[4-[2-(6-methyl-2-pyridyl)ethylcarbamoyl]anilino]-[1,2,4]triazolo[1,5-a]pyridin-8-yl]-3,6-dihydro-2H-pyridine-1-carboxylate], 3.39 nM; under `CCOC(=O)N1CC=C(c2cccn3nc(Nc4ccc(C(=O)NCCNC)cc4)nc23)CC1` [Example 2-230, ethyl 4-[2-[4-[2-(methylamino)ethylcarbamoyl]anilino]-[1,2,4]triazolo[1,5-a]pyridin-8-yl]-3,6-dihydro-2H-pyridine-1-carboxylate], 2.4 nM. Under `CCOC(=O)N1CC=C(c2cccn3nc(Nc4ccc(C(=O)NCC5CCCN5)cc4)nc23)CC1` (stereo not shown) [Example 2-233, ethyl 4-[2-[4-(pyrrolidin-2-ylmethylcarbamoyl)anilino]-[1,2,4]triazolo[1,5-a]pyridin-8-yl]-3,6-dihydro-2H-pyridine-1-carboxylate] stands 2.8 nM; under `CCOC(=O)N1CC=C(c2cccn3nc(Nc4ccc(C(=O)N5CCC(Cc6ccccn6)C5)cc4)nc23)CC1` (stereo not shown) [Example 2-234, ethyl 4-[2-[4-[3-(2-pyridylmethyl)pyrrolidine-1-carbonyl]anilino]-[1,2,4]triazolo[1,5-a]pyridin-8-yl]-3,6-dihydro-2H-pyridine-1-carboxylate], 3.72 nM. Then `CCOC(=O)N1CC=C(c2cccn3nc(Nc4ccc(C(=O)N5CCCCC5Cc5ccccn5)cc4)nc23)CC1` (stereo not shown) [Example 2-235, ethyl 4-[2-[4-[2-(2-pyridylmethyl)piperidine-1-carbonyl]anilino]-[1,2,4]triazolo[1,5-a]pyridin-8-yl]-3,6-dihydro-2H-pyridine-1-carboxylate], with 1.68 nM; and `CCOC(=O)N1CC=C(c2cccn3nc(Nc4ccc(C(=O)N5CCN(CCOC)CC5)cc4)nc23)CC1` [Example 2-236, ethyl 4-[2-[4-[4-(2-methoxyethyl)piperazine-1-carbonyl]anilino]-[1,2,4]triazolo[1,5-a]pyridin-8-yl]-3,6-dihydro-2H-pyridine-1-carboxylate], with 2.94 nM; and `CCOC(=O)N1CC=C(c2cccn3nc(Nc4ccc(C(=O)N(C)CCc5cccnc5)cc4)nc23)CC1` [Example 2-237, ethyl 4-[2-[4-[methyl-[2-(3-pyridyl)ethyl]carbamoyl]anilino]-[1,2,4]triazolo[1,5-a]pyridin-8-yl]-3,6-dihydro-2H-pyridine-1-carboxylate], with 2.37 nM. `CCOC(=O)N1CC=C(c2cccn3nc(Nc4ccc(C(=O)N5CCN(CC6CC6)CC5)cc4)nc23)CC1` [Example 2-238, ethyl 4-[2-[4-[4-(cyclopropylmethyl)piperazine-1-carbonyl]anilino]-[1,2,4]triazolo[1,5-a]pyridin-8-yl]-3,6-dihydro-2H-pyridine-1-carboxylate]: the inhibition constant Ki amounted to 2.88 nM. Consider `CCOC(=O)N1CC=C(c2cccn3nc(Nc4ccc(C(=O)N5CCCC5Cc5ccccn5)cc4)nc23)CC1` (stereo not shown) [Example 2-239, ethyl 4-[2-[4-[2-(2-pyridylmethyl)pyrrolidine-1-carbonyl]anilino]-[l,2,4]triazolo[1,5-a]pyridin-8-yl]-3,6-dihydro-2H-pyridine-1-carboxylate], for which the inhibitory constant (Ki) turned out to be 3.21 nM. As to `CCOC(=O)N1CC=C(c2cccn3nc(Nc4ccc(C(=O)N5CCCC(O)(CN6CCCC6)CC5)cc4)nc23)CC1` (stereo not shown) [Example 2-241, ethyl 4-[2-[4-[4-hydroxy-4-(pyrrolidin-1-ylmethyl)azepane-1-carbonyl]anilino]-[1,2,4]triazolo[1,5-a]pyridin-8-yl]-3,6-dihydro-2H-pyridine-1-carboxylate], the Ki turned out to be 1.08 nM.
